This note sets out measurements from PubChem BioAssay AID1645887 (National Center for Advancing Translational Sciences (NCATS), 2021).

Where “and” joins values, the source holds several entries; their conditions need not be identical. Equal entries are not always repeated. About 40 (0.2%) of roughly 16,000 compounds were called active. Another 1% or so got no clear call; they are omitted. The call rests on the fitted dose curve; in most records, active means well fitted activation curve with a large enough effect; inconclusive means small, poorly fitted or top-dose-only effect, or another doubt; inactive means no such curve, though single readings can be large or run the other way. Some of the results follow.
On the % scale 0 is the no-effect control and ±100 the full control effect.

The assay addresses Rap guanine nucleotide exchange factor 4 (Homo sapiens) (UniProt Q8WZA2). Nature of the assay: Validation qHTS for agonist of cAMP-regulated guanine nucleotide exchange factor 4 (EPAC2).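 Further: exchange makes BODIPY-GDP fluorescence drop when released from Rap1B; series mostly up to about 150 µM.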 The following applies: EPAC2 Rap1B BODIPY-GDP exchange, fluorescence; activation: hits give high values. The gist of the method: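 Fluorescent exchange assay: 100 nM EPAC2 with 250 nM RAP1B-BODIPY-GDP and 50 uM GDP; compound added, 5 min at room temperature, then read (ex 480/em 540 nm) every 5 min for 30 min. Normalized to 6.5 mM cAMP agonist control.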
Sequence of UniProt Q8WZA2 (Q8WZA2 whole entry, looked up): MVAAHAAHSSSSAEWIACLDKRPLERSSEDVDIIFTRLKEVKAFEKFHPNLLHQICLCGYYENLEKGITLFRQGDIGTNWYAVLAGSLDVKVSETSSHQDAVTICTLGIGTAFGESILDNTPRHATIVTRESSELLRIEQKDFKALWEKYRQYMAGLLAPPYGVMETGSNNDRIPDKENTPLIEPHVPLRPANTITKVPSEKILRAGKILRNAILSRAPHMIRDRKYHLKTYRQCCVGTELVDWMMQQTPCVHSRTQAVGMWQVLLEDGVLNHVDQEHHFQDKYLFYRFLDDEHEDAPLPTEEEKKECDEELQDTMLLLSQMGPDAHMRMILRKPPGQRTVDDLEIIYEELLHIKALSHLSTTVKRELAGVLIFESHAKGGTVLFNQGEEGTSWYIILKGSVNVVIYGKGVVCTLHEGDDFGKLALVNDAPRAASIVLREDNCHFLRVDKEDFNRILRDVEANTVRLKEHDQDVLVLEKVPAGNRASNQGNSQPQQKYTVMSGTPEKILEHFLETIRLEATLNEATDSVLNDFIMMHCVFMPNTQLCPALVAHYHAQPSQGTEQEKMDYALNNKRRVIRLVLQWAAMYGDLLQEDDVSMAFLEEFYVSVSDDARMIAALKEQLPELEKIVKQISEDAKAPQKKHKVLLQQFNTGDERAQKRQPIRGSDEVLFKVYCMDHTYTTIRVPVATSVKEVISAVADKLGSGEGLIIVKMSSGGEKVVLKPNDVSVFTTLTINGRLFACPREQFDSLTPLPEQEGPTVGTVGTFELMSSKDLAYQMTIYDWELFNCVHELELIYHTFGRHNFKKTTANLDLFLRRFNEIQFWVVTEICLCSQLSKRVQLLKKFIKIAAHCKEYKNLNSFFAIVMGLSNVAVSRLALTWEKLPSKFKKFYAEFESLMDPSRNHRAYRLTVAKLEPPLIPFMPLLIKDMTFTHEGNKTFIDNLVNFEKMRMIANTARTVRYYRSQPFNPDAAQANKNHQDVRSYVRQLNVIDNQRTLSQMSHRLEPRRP
On to `O=S1(=O)CCO[C@H]2CCCC[C@@H]2N1Cc1ccccc1Br`, for which the activation is inactive: -4.01%.
On to `COc1cc(/C=C/C(=O)c2c(O)cc(C)oc2=O)ccc1O`, for which the activation was inactive: -18.5%.
In the case of `C/C=C/c1ccc(O)c(OC)c1`, the activation was inactive: -2.9%.
The result for `Cc1ccc2cc(CNC(C)c3cccc4ccccc34)c(N3CCC(O)CC3)nc2c1` (stereo not drawn) reads inactive: -0.607%; that for `Cn1c(=O)c(-c2cc(F)cc(F)c2)nc2cnc(Nc3ccccc3)nc21`, inactive: 2.39%; that for `COc1cc(C(C)=O)cc(OC)c1O`, inactive: -7.68%.
Turning to `COc1ncc2nc(-c3cc(F)cc(F)c3)c(=O)n(-c3ccccc3)c2n1`, the activation is inactive: 5.79%.
Next, `CCN(CC)CCCN(c1ccccc1)C1Cc2ccccc2C1`: inactive: -20.4% and inactive: -45.4%; `CCNC(=O)[C@@H]1CCCN1C(=O)[C@H](CCCN=C(N)N)NC(=O)[C@H](CC(C)C)NC(=O)[C@@H](CC(C)C)NC(=O)[C@H](Cc1ccc(O)cc1)NC(=O)[C@H](CO)NC(=O)[C@H](Cc1c[nH]c2ccccc12)NC(=O)[C@H](Cc1cnc[nH]1)NC(=O)[C@@H]1CCC(=O)N1`: inactive: 0.972%; `Nc1cccc2[nH]cnc12`: inactive: -4.63%.
On to `CN(C)Cc1ccccc1-c1nc(N2CCOCC2)c2ccccc2n1`, for which the activation was inactive: -8.14%.
Next, `Cc1oc(=O)oc1CN1CCN(c2cc3c(cc2F)c(=O)c(C(=O)O)c2n3C(C)S2)CC1` (stereo not drawn): inactive: -13.1%.
The result for `CN1CCN(c2ncc3nc(-c4cccs4)c(=O)n(Cc4cccs4)c3n2)CC1` reads inactive: -15%.
Next, `Cc1noc(C)c1-c1ccc2ncnc(N(C)Cc3ccco3)c2c1`: inactive: -2.45%.
As for `COc1cc(=O)n2c(c1C(=O)N(C)Cc1nccs1)CCN(Cc1cc(C)cc(C)c1)CC2`, the activation is inactive: -9.88%.
For `C[C@H](Cc1ccccc1)Nc1ncnc2c1ncn2[C@@H]1O[C@H](CO)[C@@H](O)[C@H]1O`, the activation is inactive: -2.48% and inactive: -42.4%.
On to `Cc1ccccc1-c1cncnc1N1CCN(C)CC1`, for which the activation is inactive: 0.21%.
The result for `COc1ccccc1CN1CC[C@@]2(CCCN(C(=O)c3cnccn3)C2)C1` reads inactive: 6.01%; that for `COc1cc(-c2c(-c3cc(OC)c(OC)c(OC)c3)noc2C)ccc1F`, inactive: -11.7%.
Next, `COc1cc(O)c(C(=O)/C=C/c2ccc(O)c(OC)c2)c(OC)c1`: inactive: -2.96%.
Turning to `Cc1cc(OI)c(C(C)C)cc1-c1cc(C(C)C)c(OI)cc1C`, the activation is inactive: 5.44%.
Consider `CO[C@@H]1[C@@H](O[C@@H]2O[C@H](C)[C@@H](O[C@H]3C[C@@](C)(O)[C@@H](O)[C@H](C)O3)[C@H](N(C)C)[C@H]2O)[C@@H](CC=O)C[C@@H](C)[C@@H](O[C@@H]2CC[C@H](N(C)C)[C@@H](C)O2)/C=C/C=C/C[C@@H](C)OC(=O)C[C@H]1OC(C)=O`, for which the activation was inactive: 17%.
Next, `Cc1noc(C)c1-c1nccc(NCCN2CCOCC2)n1`: inactive: -2.24%.
As to `Cc1nc([N+](=O)[O-])cn1-c1ccc([N+](=O)[O-])cc1`, the activation is inactive: -0.471%.
In the case of `Cc1cccc(CNc2cc(-c3ccccc3CN(C)C)ncn2)c1`, the activation is inactive: -7.37%.
Consider `CC(O)c1nc2ccccc2[nH]1` (stereo not drawn), for which the activation was inactive: 0.34%.
For `CN(C)C(=O)c1ccc(-c2nc(N(C)Cc3ccco3)c3ccccc3n2)cc1`, the activation was inactive: -8.18%.
The result for `O=C(Nc1ccccc1)N1CC2(CCN(C(=O)c3ccncc3)CC2)C1` reads inactive: -5.5%; that for `CC(=O)OCC(=O)[C@@]12OC3(CCCC3)O[C@@H]1C[C@H]1[C@@H]3CCC4=CC(=O)C=C[C@]4(C)[C@@]3(F)[C@@H](O)C[C@@]12C`, inactive: -7.89%.
The result for `COc1ccc(Oc2ncc3nc(CCc4ccccc4)c(=O)n(C[C@H]4CCCO4)c3n2)cc1` reads inactive: -17.4%.
Regarding `N=C(N=C(N)N)N1CCOCC1`, the activation is inactive: 12.3%.
Next, `Nc1ccn([C@@H]2O[C@H](CO)[C@@H](OP(=O)(O)O)[C@H]2O)c(=O)n1`: inactive: -14.2%; `c1ccc(CNc2nc(-c3cccnc3)nc3ccccc23)cc1`: inactive: -9.11%; `Nc1nc(N)c(N=O)c(N)n1`: inactive: -6.66%.
Next, `C[C@H](O)CO[C@H]1[C@H]2O[C@H]3[C@H](O)[C@@H](O)[C@@H](O[C@H]4[C@H](O)[C@@H](O)[C@@H](O[C@H]5[C@H](O)[C@@H](O)[C@@H](O[C@H]6[C@H](O)[C@@H](OC[C@H](C)O)[C@@H](O[C@H]7[C@H](O)[C@@H](OC[C@H](C)O)[C@@H](O[C@H]8[C@H](O)[C@@H](O)[C@@H](O[C@@H]([C@@H]1O)[C@@H](CO)O2)O[C@@H]8CO)O[C@@H]7CO)O[C@@H]6CO)O[C@@H]5CO)O[C@@H]4CO)O[C@@H]3CO`: inactive: 6.8%.
The result for `COc1cc2nc(CN(CCO)C3CS(=O)(=O)CC3O)nc(N3CCCCC3)c2cc1OC` (stereo not drawn) reads inactive: 2.38%; that for `CCOC(=O)N1CCN(c2nc(CN3CCCCC3CCO)nc3c(C)cccc23)CC1` (stereo not drawn), inactive: -1.27%; that for `COc1cc2c(cc1OC)Cc1cc(OC)c(OC)cc1Cc1cc(OC)c(OC)cc1C2`, inactive: -2.49%.
As to `CSc1ccc(C(=O)N2CCc3c(cnc(C)c3CNC(=O)c3cncs3)C2)cc1`, the activation is inactive: 0.251%.
Next, `CCN1CCCC1=O`: inactive: 0.647%.
Next, `CN(Cc1ccon1)C(=O)c1cnn(-c2ncc3c(n2)-c2ccccc2CCC3)c1C1CC1`: inactive: -21.6%; `COc1ccc(-n2c(=O)c(-c3ccc(Cl)cc3)nc3cncnc32)cc1`: inactive: -6.98%.
Regarding `Cc1ccccc1CN1CCCOCCS1(=O)=O`, the activation was inactive: -20.4%.
Next, `O=C(c1ccco1)N1CCC2(CCN(Cc3nccs3)CC2)CC1`: inactive: -16%; `COC(=O)N1CCC[C@@]2(CCN(C(=O)Nc3ccccc3)C2)C1`: inactive: 3.02%.
The result for `CC(=O)OC1CC2C(C)(C)C(O)CCC2(C)C2CC[C@]3(C)C(=CC(=O)OC3c3ccoc3)C12C` (stereo partly drawn) reads inactive: -14.1%.
The result for `O=C(O)C1=CC(O)[C@@H](O)C(O)C1` (stereo partly drawn) reads inactive: -25.2%; that for `CO[C@H]1[C@@H](O)[C@H](N)[C@@H](O[C@H]2O[C@H]([C@H](C)N)CC[C@H]2N)[C@H](O)[C@@H]1N(C)C(=O)CN`, inactive: -7.27%.
